The record followed here is PMC12040169 (PLOS Biology, 2025).

The other results are listed elsewhere or left out.

The subject of this assay is T1, C. trachomatis L2/434/Bu expressing GFP (CTL2-GFP).
T1 construct: L2/434/Bu GFP intracellular growth in HeLa cells
Set-up: species or system HeLa; C. trachomatis total inclusion area by high-content imaging, normalised to DMSO. The conditions noted are these: total inclusion area; 28.5 h, 10 µM; inhibitor. Summed up: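 After bulk GFP and resorufin fluorescence reads, cells were fixed, stained with Hoechst and imaged by high-content microscopy. Inclusion area and number (GFP) stood in for chlamydial growth, nuclei count (Hoechst) for host cell viability. MICs were derived as for the bulk readout.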
Turning to `Cc1cccc2c1ncn1c(=O)n(CC(=O)Nc3cccc(Cl)c3)nc21` [CBK287815], the “% of control remaining” value is listed as 103.507.
Turning to `CCNc1ncc(C(=O)N2CCOC(c3ccc(F)c(C)c3)C2)s1` (stereo not drawn) [CBK306375], the “% of control remaining” value is recorded as 19.6459.
For `COc1ccc(S(=O)(=O)NCCSCc2cccc(Cl)c2)c(Cl)c1Cl` [CBK266281], the “% of control remaining” value came to 130.323.
Turning to `COCCCNC(NC(=O)c1ccc(C)cc1)C(Cl)(Cl)Cl` (stereo not drawn) [CBK263087], the “% of control remaining” value was 93.3726.
Turning to `c1ccc(CN2CCC(c3ccncc3)CC2)nc1` [CBK283505], the “% of control remaining” value stood at 76.0521.
The result for `CN1CCN(c2nc3c(c(=O)n(C)c(=O)n3C)n2CCSc2nc3ccccc3o2)CC1` [CBK269452] reads 100.576; that for `NS(=O)(=O)c1ccc(CNC(=S)NC2CCCC2)cc1` [CBK265802], 63.1887.
Turning to `Fc1ccc([C@@H]2COC[C@H]2NCc2ccsc2)cc1` [CBK282598], the “% of control remaining” value is 117.572.
As for `Cc1cc(NC(=O)C2CCN(CCOc3ccccc3F)CC2)no1` [CBK305688], the figure is 48.4398; as for `CCc1ccc2c(COC(=O)c3cccnc3SC)cc(=O)oc2c1` [CBK297486], 98.9254.
`CCc1nccn1CC(=O)NC(Cc1ccsc1)c1nccs1` (stereo not drawn) [CBK285139]: the “% of control remaining” value turned out to be 66.3849.
As for `COc1ccc(C23CCCN(C)C2C[C@@H](O)CC3)cc1OC` (stereo partly drawn) [CBK016226C], the “% of control remaining” value amounted to 18.5003.
Turning to `Cc1ccccc1C(=O)N1C2CCC1CC(O)(Cn1ccnc1C)C2` (stereo not drawn) [CBK282740], the “% of control remaining” value came out at 112.97.
In the case of `COc1cc(OC)cc(C(=O)N2CCC3(CC2)CC(=O)c2cc(F)cc(F)c2O3)c1` [CBK168089], the “% of control remaining” value came to 97.3247.
Take `O=C(NCC(O)c1ccc2ccccc2c1)c1cnc(-c2ccccc2)c(-c2ccncc2)c1` (stereo not drawn) [CBK037438]: the “% of control remaining” value is reported as 95.3274.
Consider `O=C(Cc1csc(-c2ccc(Cl)cc2)n1)NCC1CCCN1` (stereo not drawn) [CBK160982], for which the “% of control remaining” value was determined as 140.469.
`CNS(=O)(=O)c1cc(C(=O)NCc2ccco2)ccc1OC` [CBK270180]: the “% of control remaining” value came to 98.8503.
Turning to `Cc1ccc(/C=C/C(=O)O)cc1S(=O)(=O)N(CCO)CCO` [CBK264840], the “% of control remaining” value came to 108.726.
As for `COc1ccccc1CN(CCN(C)C)C(=O)Cc1c(C)[nH]c(=O)[nH]c1=O` [CBK286343], the figure is 84.3754; as for `COc1nccnc1OC1CCN(CCCC#N)CC1` [CBK084255], 102.891.
Take `O=C1CCC(=O)N1CCOc1nccnc1OC1CCN(Cc2ccccc2-c2ccccc2)CC1` [CBK084344]: the “% of control remaining” value was 87.8646.
Take `O=C(Nc1cnc(-c2ccc(F)c(Cl)c2)c(-c2cccnc2)n1)c1ccc(N2CCCC2=O)cc1` [CBK036794]: the “% of control remaining” value turned out to be 114.087.
As to `Cc1nc(C)c(CCC(=O)N2CCCCC2Cn2cccn2)c(=O)[nH]1` (stereo not drawn) [CBK305310], the “% of control remaining” value is 91.1545.
Regarding `COc1ccc(Nc2nc(N)nc(CN3CC(C)CC(C)C3)n2)cc1` (stereo not drawn) [CBK288154], the “% of control remaining” value came to 90.1431.
With `CC1(C)CC(=O)c2sc(NC(=O)c3ccc(Oc4ccccc4)cc3)nc2C1` [CBK144106], the “% of control remaining” value was 91.3142.
Regarding `FC(F)c1cc([C@@H]2CN(CC3CCOC3)C[C@H]2c2ccccc2)n[nH]1` (stereo partly drawn) [CBK285430], the “% of control remaining” value amounted to 90.735.
As for `O=C(Cc1ccc(F)cc1)Nc1cccc(-c2noc(-c3ccc(F)cc3)n2)c1` [CBK299821], the figure is 76.0439; as for `O=C(O)CCc1ccc(-c2ccc(Cl)cc2)[nH]1` [CBK264781], 84.7236; as for `O=S(=O)(c1ccc2ccccc2c1)N1CCN(C2CCC(c3ccccc3)CC2)CC1` (stereo not drawn) [CBK264152], 119.744.
`Cc1nn(CC(=O)NCC2CC2)c(=O)c2cc3sccc3n12` [CBK284025]: the “% of control remaining” value is recorded as 92.9432.
As for `Cc1cc(=O)[nH]c(-n2nc(C)cc2NC(=O)c2ccccc2)n1` [CBK287653], the figure is 84.5251; as for `CCn1c(SCC(=O)Nc2cccc([N+](=O)[O-])c2)nnc1-c1cc(Br)ccc1O` [CBK267980], 99.7304.
In the case of `O=C(c1ccco1)N1CCN(c2ncnc3scc(-c4cccs4)c23)CC1` [CBK267208], the “% of control remaining” value was 102.347.
For the compound `COc1ccccc1CN(Cc1cccnc1)C(=O)CCC(F)(F)F` [CBK307713], the “% of control remaining” value is 38.5851.
Consider `CCn1c(C(CC(C)C)NC(=O)C2CC2)nc2cccnc21` (stereo not drawn) [CBK283736], for which the “% of control remaining” value turned out to be 79.9159.
The result for `COc1cc(CNc2cccc(-c3ccsc3)n2)cc(OC)c1` [CBK037592] reads 73.6741.
On to `Nc1cc(-c2ccco2)nn(Cc2c(F)cccc2Cl)c1=O` [CBK282881], for which the “% of control remaining” value is 75.1126.
Consider `O=C(O)CNC(=O)Cn1ccc2ccc(OCc3ccccc3)cc21` [CBK286644], for which the “% of control remaining” value was found to be 97.261.
`O=C(NCc1ccc(OC(F)(F)F)cc1)c1cnoc1-c1ccc(F)cc1` [CBK154952]: the “% of control remaining” value stood at 101.733.
The result for `CN1C(=O)c2ccccc2C(=O)[C@@]2(C)CN(C(=O)C3CC3)C[C@@H]12` [CBK284569] reads 105.123; that for `CCCCC(NS(=O)(=O)Cc1ccccc1)C(=O)O` (stereo not drawn) [CBK286798], 94.7934; that for `CCNC(=O)NC[C@H]1C[C@@H]2CCN1C[C@@H]2c1cc(-c2ccccc2OC)nn1C` [CBK289105], 74.0189.
As for `Cc1ccc(S(=O)(=O)Nc2ccnc(Cl)n2)cc1` [CBK067661], the “% of control remaining” value is recorded as 87.9721.
For the compound `CCN(C(=O)Cn1cccc(OC)c1=O)C1CCOC(C)(C)C1` (stereo not drawn) [CBK306879], the “% of control remaining” value amounted to 86.6293.
For `CCN(CC)CCCNc1oc(-c2ccc(Cl)cc2)nc1C#N` [CBK265746], the “% of control remaining” value is recorded as 111.411.
`c1ccc2c3c([nH]c2c1)C1(CCN(CCC2CCCCC2)C1)OCC3` (stereo not drawn) [CBK061789]: the “% of control remaining” value is reported as 9.866.
As for `O=S(=O)(CC(F)(F)F)N(c1ccccc1)C1CCNCC1` [CBK165093T], the figure is 86.0624; as for `COc1ccc(C(=O)N(C)C2CCN(C)C2)cc1Nc1cncc(-c2cc3ccccc3[nH]2)n1` (stereo not drawn) [CBK155260T], 76.966; as for `Nc1ncc(-c2ccsc2)nc1NCC1CCOCC1` [CBK063848], 97.1923.
Turning to `O=C(Cn1ccc(=O)[nH]c1=O)NCC1(Sc2ccccc2)CC1` [CBK306242], the “% of control remaining” value came to 66.3725.
Regarding `O=C(CCC(=O)c1ccc2c(c1)OCCO2)OCC(=O)c1ccc(Cl)c(Cl)c1` [CBK264825], the “% of control remaining” value was found to be 118.374.
